Laboratory results published in PubChem BioAssay AID540317 (National Center for Advancing Translational Sciences (NCATS), 2011).
The campaign covered roughly 390,000 compounds. About 2,200 (0.56%) were called active. This list was built around the results that the source calls inconclusive (neither active nor inactive); the mix of calls is not that of the screen. Calls follow the shape of the dose curve; as a rule, active = well fitted inhibition curve with a large enough effect; inconclusive = small, poorly fitted or top-dose-only effect; inactive = no such curve, though single readings can be large or run the other way. A potency beside an inconclusive call is a rough fit, not a confirmed value.

Each compound was assayed against Chromobox protein homolog 1 (Homo sapiens) (UniProt P83916) (assay: HTS for Inhibitors of HP1-beta Chromodomain Interactions with Methylated Histone Tails). Settings: AlphaScreen HP1-beta / biotin-H3K9me3 peptide binding; series mostly up to 114 µM; activity change, negative = inhibition: at the top concentration.
Sequence of UniProt P83916 (P83916 whole entry, looked up): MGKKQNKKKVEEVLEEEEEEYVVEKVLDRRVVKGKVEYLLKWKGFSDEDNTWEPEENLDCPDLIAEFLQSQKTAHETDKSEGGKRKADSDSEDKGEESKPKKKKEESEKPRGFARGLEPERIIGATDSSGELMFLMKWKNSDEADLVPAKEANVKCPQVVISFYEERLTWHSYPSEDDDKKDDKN
Summary of the method: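 AlphaScreen: HP1-beta (50 nM) preformed 30 min with biotin-H3(1-18)K9me3 peptide (50 nM) in PBS pH 7.4, 0.01% Tween-20. Compound added for 30 min at RT, then streptavidin donor/nickel chelate acceptor beads (10 ug/mL) for 30 min.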
Also: nearly all actives have a fitted effect of over 70% in size.
Potency is read from the fitted curve at half-maximal effect; tags tell the direction and shape of the fitted curve.

Row | Compound | Potency | activity change, negative = inhibition
1 | COc1ccc(C)cc1N(CC(=O)Nc1cccc(N(C)S(C)(=O)=O)c1)S(C)(=O)=O | inconclusive: 44.7 µM [inhibitor, partial curve] | 
2 | Nc1ccc(Nc2ccccc2)cc1 | inconclusive: 22.4 µM [inhibitor, full curve, poor fit] | 
3 | COc1cc(OC)c(OC)cc1CN1CCN(c2ccccc2OC)CC1 | inconclusive: 17.8 µM [inhibitor, full curve] | 
4 | O=C(O)c1ccccc1C(=O)NNc1ccc(Cl)cc1Cl |  | inactive: 34.9%
5 | O=Cc1ccc2oc3nc4n(c(=O)c3c(=O)c2c1)CCCS4 | inconclusive: 15.8 µM [inhibitor, full curve] | 
6 | Cc1cccc(OCCCN2C(=O)C(=O)c3cc(C)ccc32)c1 | inconclusive: 22.4 µM [inhibitor, full curve] | 
7 | O=C(CCOc1ccccc1)Nc1ccc([N+](=O)[O-])cc1 |  | inactive: 36.1%
8 | CC(=O)NC(Cc1c[nH]c2ccccc12)C(=O)OCC(=O)Nc1ccc2c(c1)OCO2 (stereo unspecified) |  | inactive: 10.4%
9 | CCOC(=O)c1c(NC(=O)COC(=O)CC(NC(C)=O)c2ccccc2)sc(C(=O)NC)c1C (stereo unspecified) |  | inactive: 26%
10 | CCOc1ccccc1NC(=O)CSc1nccn1-c1ccc(Cl)cc1 | inconclusive: 11.2 µM [inhibitor, partial curve] | 
11 | Cn1c(-c2ccc(F)cc2)cnc1NCc1cccc(F)c1 | inconclusive: 56.2 µM [inhibitor, partial curve, poor fit] | 
12 | Cc1[nH]n(C(N)=S)c(=O)c1N=Nc1ccc(S(=O)(=O)N2CCCC2)cc1 | inconclusive: 31.6 µM [inhibitor, single point] | 
13 | Cc1ccccc1NC(=O)CSC(=O)c1ccccc1 | inconclusive: 44.7 µM [inhibitor, partial curve] | 
14 | Cc1[nH]c2ccccc2c1/C=N/Nc1nncn1N |  | inactive: 17.4%
15 | Cc1nc(-c2ccc(S(=O)(=O)N3CCN(C4c5ccccc5-c5ccccc54)CC3)s2)cs1 | inconclusive: 89.1 µM [inhibitor, single point] | 
16 | N#C/C(=C/c1ccc(N2CCOCC2)o1)c1ccc(Br)cc1 | inconclusive: 22.4 µM [inhibitor, partial curve, poor fit] | 
17 | CCCCCCC(=O)NC(Nc1ccc(S(N)(=O)=O)cc1)C(Cl)(Cl)Cl (stereo unspecified) |  | inactive: 27.2%
18 | CCCNC(=O)CSc1nnc(-c2ccco2)n1C |  | inactive: -7.74%
19 | COc1ccccc1CN1CCN(Cc2cc(OC)c(OC)cc2OC)CC1 | inconclusive: 12.6 µM [inhibitor, partial curve, poor fit] | 
20 | CCOC(=O)c1sc(N)nc1C(F)(F)F | inconclusive: 25.1 µM [inhibitor, partial curve, poor fit] | 
21 | Cc1cccc(C)c1-n1c(C)cc(/C=N/NC(=O)CSc2ncccn2)c1C | inconclusive: 56.2 µM [inhibitor, partial curve, poor fit] | 
22 | Cn1c(CSCc2ccc(Cl)cc2Cl)n[nH]c1=S |  | inactive: 3.4%
23 | CC(=O)N1CCN(C(=S)c2cccc([N+](=O)[O-])c2)CC1 |  | inactive: -3.09%

Row | Compound | Potency | activity change, negative = inhibition
24 | Cc1sc2ncnc(N3CCC(C(=O)Nc4ccc(S(N)(=O)=O)cc4)CC3)c2c1C |  | inactive: 10.6%
25 | Cc1cc(NC(=O)Cc2cccs2)no1 | inconclusive: 17.8 µM [inhibitor, full curve, poor fit] | 
26 | O=C(CSc1nc2c(cnn2-c2ccc(F)cc2)c(=O)[nH]1)Nc1ccc(Br)cc1 |  | inactive: 9.63%
27 | Cc1cccc(N(C(=O)c2snc(C(N)=O)c2N)C(C(=O)NCc2ccccc2)c2ccncc2)c1 (stereo unspecified) | inconclusive: 89.1 µM [inhibitor, partial curve, poor fit] | 
28 | CCOc1ccc2c(c1)C(C)=CC(C)(C)N2C(=O)Nc1ccccc1 | inconclusive: 44.7 µM [inhibitor, partial curve, poor fit] | 
29 | CC(C)Oc1ccc(CNC(=O)CCCn2c(=O)c3cccn3c3cccnc32)cc1 |  | inactive: 15.1%
30 | O=C(CSc1nc(-c2ccccc2)cn1-c1ccccc1)Nc1ccccc1 | inconclusive: 35.5 µM [inhibitor, partial curve] | 
31 | Cc1ccc(-c2nn(-c3ccccc3)cc2C2SCC(=O)N2Cc2ccccc2)o1 (stereo unspecified) | inconclusive: 44.7 µM [inhibitor, partial curve] | 
32 | COC(=O)c1c(NC(=O)CC2SC(N)=NC2=O)sc2c1CCC(C)C2 (stereo unspecified) | inconclusive: 79.4 µM [inhibitor, single point] | 
33 | CN(C)c1ccc(C(c2nnnn2CCOC(=O)Nc2ccc(Cl)cc2)N2CCOCC2)cc1 (stereo unspecified) | inconclusive: 14.1 µM [inhibitor, partial curve, poor fit] | 
34 | CN1C(=O)/C(=C2/C=Cc3ccccc3N2CCCS(=O)(=O)O)SC1=S | inconclusive: 50.1 µM [inhibitor, single point] | 
35 | O=C(NCCCN1CCCCC1)c1cc(Sc2ccc(Cl)cc2)nc2ccccc12 |  | inactive: 11.6%
36 | COc1ccccc1NC(=S)NCCc1ccc(S(N)(=O)=O)cc1 |  | inactive: 40%
37 | O=C1c2sc3nc4n(c(=O)c3c2CCC1Br)CCCCC4 (stereo unspecified) | inconclusive: 56.2 µM [inhibitor, partial curve, poor fit] | 
38 | Cc1cc(=O)[nH]c(SCC(=O)Nc2ncc(S(=O)(=O)c3ccc([N+](=O)[O-])cc3)s2)n1 | inconclusive: 50.1 µM [inhibitor, partial curve] | 
39 | Cc1ccc(C)c(NC(=O)N2CCCCCC2)c1 | inconclusive: 89.1 µM [inhibitor, single point] | 
40 | Cc1nn(Cc2c(F)cccc2Cl)c(C)c1NC(=O)C1CC1 |  | inactive: 46.9%
41 | Cc1nc2nc(NC(=O)c3ccc(Cl)cc3)[nH]n2c(=O)c1Cc1ccccc1 |  | inactive: 21.3%
42 | CCOC(=O)C1=C(C)N=c2s/c(=C\c3ccc(OCC(=O)O)cc3)c(=O)n2C1c1ccc(Cl)cc1 (stereo unspecified) | active: 39.8 µM | 
43 | O=C(Nc1ccc(N=Nc2ccccc2)c(NC(=O)C2CCCO2)c1)C1CCCO1 (stereo unspecified) | inconclusive: 44.7 µM [inhibitor, partial curve] | 
44 | Nc1ccc(N=Nc2ccccc2)c2cccnc12 | active: 15.8 µM | 
45 | CN=c1scc(-c2ccccc2F)n1/N=C/c1ccc[nH]1 | active: 39.8 µM | 
46 | COc1cc(NCc2ccccc2)c2ncn(Cc3ccccc3)c2c1 | inconclusive: 50.1 µM [inhibitor, partial curve] | 
